For 31 molecules, binding signal results are on record in paper PMC9911399, “Two distinct binding modes provide the RNA-binding protein RbFox with extraordinary sequence specificity”.

Positions count from the first letter of the chain named. The list shows a part of the results.

First the molecules themselves.
B1: GACCCCC (DNA:RNA)
RNA: GGGAGACCGGAAUUCAGAUUGUCCGACCCCCUUAAAUCCCGUCGUAGCCACCA
DNA 1: CAATCTGAATTCCGGTCTCCC
DNA 2: TGGTGGCTACGACGGGATT
B2: UGGUUCG (DNA:RNA)
RNA: B1 RNA with G25U, A26G, C27G, C28U, C29U, C31G
DNA 1: CAATCTGAATTCCGGTCTCCC
DNA 2: TGGTGGCTACGACGGGATT
B3: UGUACAC (DNA:RNA)
RNA: B1 RNA with G25U, A26G, C27U, C28A, C30A
DNA 1: CAATCTGAATTCCGGTCTCCC
DNA 2: TGGTGGCTACGACGGGATT
B4: UUAUGGA (DNA:RNA)
RNA: GGGAGACCGGAAUUCAGAUUGUCCUUAUGGAUUAAAUCCCGUCGUAGCCACCA
DNA 1: CAATCTGAATTCCGGTCTCCC
DNA 2: TGGTGGCTACGACGGGATT
B5: AAAGCUU (DNA:RNA)
RNA: B1 RNA with G25A, C27A, C28G, C30U, C31U
DNA 1: CAATCTGAATTCCGGTCTCCC
DNA 2: TGGTGGCTACGACGGGATT
B6: CCGAUGC (DNA:RNA)
RNA: B1 RNA with G25C, A26C, C27G, C28A, C29U, C30G
DNA 1: CAATCTGAATTCCGGTCTCCC
DNA 2: TGGTGGCTACGACGGGATT
B7: ACGGGAC (DNA:RNA)
RNA: B1 RNA with G25A, A26C, C27G, C28G, C29G, C30A
DNA 1: CAATCTGAATTCCGGTCTCCC
DNA 2: TGGTGGCTACGACGGGATT
B8: GCAGGUA (DNA:RNA)
RNA: B4 RNA with U25G, U26C, U28G, G30U
DNA 1: CAATCTGAATTCCGGTCTCCC
DNA 2: TGGTGGCTACGACGGGATT
B9: CCCGCGA (DNA:RNA)
RNA: B1 RNA with G25C, A26C, C28G, C30G, C31A
DNA 1: CAATCTGAATTCCGGTCTCCC
DNA 2: TGGTGGCTACGACGGGATT
B10: UAGGCAA (DNA:RNA)
RNA: B1 RNA with G25U, C27G, C28G, C30A, C31A
DNA 1: CAATCTGAATTCCGGTCTCCC
DNA 2: TGGTGGCTACGACGGGATT
B11: UCUAAGG (DNA:RNA)
RNA: B4 RNA with U26C, A27U, U28A, G29A, A31G
DNA 1: CAATCTGAATTCCGGTCTCCC
DNA 2: TGGTGGCTACGACGGGATT
B12: CCGAGGG (DNA:RNA)
RNA: B4 RNA with U25C, U26C, A27G, U28A, A31G
DNA 1: CAATCTGAATTCCGGTCTCCC
DNA 2: TGGTGGCTACGACGGGATT
B13: UAGGAAG (DNA:RNA)
RNA: B1 RNA with G25U, C27G, C28G, C29A, C30A, C31G
DNA 1: CAATCTGAATTCCGGTCTCCC
DNA 2: TGGTGGCTACGACGGGATT
B14: UUUCAAG (DNA:RNA)
RNA: B4 RNA with A27U, U28C, G29A, G30A, A31G
DNA 1: CAATCTGAATTCCGGTCTCCC
DNA 2: TGGTGGCTACGACGGGATT
B15: UGCCCGU (DNA:RNA)
RNA: B1 RNA with G25U, A26G, C30G, C31U
DNA 1: CAATCTGAATTCCGGTCTCCC
DNA 2: TGGTGGCTACGACGGGATT
B16: AGUCUAU (DNA:RNA)
RNA: B1 RNA with G25A, A26G, C27U, C29U, C30A, C31U
DNA 1: CAATCTGAATTCCGGTCTCCC
DNA 2: TGGTGGCTACGACGGGATT
B17: AAGAAAG (DNA:RNA)
RNA: B1 RNA with G25A, C27G, C28A, C29A, C30A, C31G
DNA 1: CAATCTGAATTCCGGTCTCCC
DNA 2: TGGTGGCTACGACGGGATT
B18: ACCUAGG (DNA:RNA)
RNA: B4 RNA with U25A, U26C, A27C, G29A, A31G
DNA 1: CAATCTGAATTCCGGTCTCCC
DNA 2: TGGTGGCTACGACGGGATT
B19: UGGGGUA (DNA:RNA)
RNA: B4 RNA with U26G, A27G, U28G, G30U
DNA 1: CAATCTGAATTCCGGTCTCCC
DNA 2: TGGTGGCTACGACGGGATT
B20: AGACUCU (DNA:RNA)
RNA: B1 RNA with G25A, A26G, C27A, C29U, C31U
DNA 1: CAATCTGAATTCCGGTCTCCC
DNA 2: TGGTGGCTACGACGGGATT
B21: CAUUUCA (DNA:RNA)
RNA: B1 RNA with G25C, C27U, C28U, C29U, C31A
DNA 1: CAATCTGAATTCCGGTCTCCC
DNA 2: TGGTGGCTACGACGGGATT
B22: GUCCUUC (DNA:RNA)
RNA: B1 RNA with A26U, C29U, C30U
DNA 1: CAATCTGAATTCCGGTCTCCC
DNA 2: TGGTGGCTACGACGGGATT
B23: GAUACCA (DNA:RNA)
RNA: B1 RNA with C27U, C28A, C31A
DNA 1: CAATCTGAATTCCGGTCTCCC
DNA 2: TGGTGGCTACGACGGGATT
B24: CUCCGGC (DNA:RNA)
RNA: B1 RNA with G25C, A26U, C29G, C30G
DNA 1: CAATCTGAATTCCGGTCTCCC
DNA 2: TGGTGGCTACGACGGGATT
B25: CUAUUGG (DNA:RNA)
RNA: B4 RNA with U25C, G29U, A31G
DNA 1: CAATCTGAATTCCGGTCTCCC
DNA 2: TGGTGGCTACGACGGGATT
B26: ACGGGCA (DNA:RNA)
RNA: B4 RNA with U25A, U26C, A27G, U28G, G30C
DNA 1: CAATCTGAATTCCGGTCTCCC
DNA 2: TGGTGGCTACGACGGGATT
B27: AAAGGAG (DNA:RNA)
RNA: B4 RNA with U25A, U26A, U28G, G30A, A31G
DNA 1: CAATCTGAATTCCGGTCTCCC
DNA 2: TGGTGGCTACGACGGGATT
B28: CUAACAG (DNA:RNA)
RNA: B4 RNA with U25C, U28A, G29C, G30A, A31G
DNA 1: CAATCTGAATTCCGGTCTCCC
DNA 2: TGGTGGCTACGACGGGATT
B29: AUAAUGA (DNA:RNA)
RNA: B4 RNA with U25A, U28A, G29U
DNA 1: CAATCTGAATTCCGGTCTCCC
DNA 2: TGGTGGCTACGACGGGATT
B30: AGAUGUG (DNA:RNA)
RNA: B4 RNA with U25A, U26G, G30U, A31G
DNA 1: CAATCTGAATTCCGGTCTCCC
DNA 2: TGGTGGCTACGACGGGATT
B31: UCUUCAC (DNA:RNA)
RNA: B1 RNA with G25U, A26C, C27U, C28U, C30A
DNA 1: CAATCTGAATTCCGGTCTCCC
DNA 2: TGGTGGCTACGACGGGATT

This experiment has as its target T1, RBFOX1 RRM (Homo sapiens, UniProt Q9NWB1 109-208).
T1 sequence: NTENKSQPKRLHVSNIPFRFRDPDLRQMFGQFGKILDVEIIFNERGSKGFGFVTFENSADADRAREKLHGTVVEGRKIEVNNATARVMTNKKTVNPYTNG
As to the kind of experiment: EMSA; HiTS-Eq, 1 nM pool, 10 min; buffer printed only for the single-RNA assays: 10 mM Tris pH 7.5, 150 mM NaCl, 3.4 mM EDTA, 0.001% NP-40, 30 C. The note with it: tags: His6 N-terminal (pET28a); label: 5' 32P. The method in brief:
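Purified RbFox RRM, wild type or mutant, was incubated for 10 min in 50 µL with 1 nM of a 5′-radiolabelled RNA pool carrying 7 randomized nucleotides, whose flanks were annealed to DNA oligonucleotides, over a series of increasing protein concentrations. Unbound RNA was resolved on 8% native PAGE, cut out, reverse-transcribed, barcoded by PCR and sequenced on an Illumina HiSeq 2500. Relative association constants were derived from changes in read counts for each RNA species versus the control reaction and normalised to the cognate motif.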
On to B1, for which the binding signal is 0.00672 KA relative to UGCAUGU. The result for B2 reads 0.0375 KA relative to UGCAUGU; that for B3, 0.00975 KA relative to UGCAUGU; that for B4, 0.00363 KA relative to UGCAUGU. As to B5, the binding signal is 0.00553 KA relative to UGCAUGU.

For B6, the binding signal was 0.0124 KA relative to UGCAUGU. For the molecule B7, the binding signal is 0.0106 KA relative to UGCAUGU.

For the molecule B8, the binding signal is 0.011 KA relative to UGCAUGU. The figure for B9 is 0.00603 KA relative to UGCAUGU; for B10 it is 0.00743 KA relative to UGCAUGU.

Take B11: the binding signal was 0.00615 KA relative to UGCAUGU. The result for B12 reads 0.00813 KA relative to UGCAUGU; that for B13, 0.0131 KA relative to UGCAUGU; that for B14, 0.0112 KA relative to UGCAUGU. Turning to B15, the binding signal was 0.0214 KA relative to UGCAUGU. The result for B16 reads 0.00336 KA relative to UGCAUGU; that for B17, 0.00632 KA relative to UGCAUGU. On to B18, for which the binding signal is 0.00669 KA relative to UGCAUGU. Turning to B19, the binding signal was 0.0298 KA relative to UGCAUGU. On to B20, for which the binding signal was 0.00721 KA relative to UGCAUGU.

On to B21, for which the binding signal was 0.00377 KA relative to UGCAUGU.

For B22, the binding signal is 0.0133 KA relative to UGCAUGU.

On to B23, for which the binding signal was 0.0027 KA relative to UGCAUGU. The figure for B24 is 0.00865 KA relative to UGCAUGU. The figure for B25 is 0.0101 KA relative to UGCAUGU; for B26 it is 0.007 KA relative to UGCAUGU. The figure for B27 is 0.00703 KA relative to UGCAUGU; for B28 it is 0.00709 KA relative to UGCAUGU.

For B29, the binding signal is 0.00664 KA relative to UGCAUGU. The figure for B30 is 0.0146 KA relative to UGCAUGU; for B31 it is 0.0046 KA relative to UGCAUGU.
